No constants are given. Whether binding was seen depends on the method and setting. In cells and extracts the contact can be indirect. Some entries that bind do so weakly or less than the wild type. For part of these data: Sequences can lack the tags named with a protein.
Tests used:
[1] = biological target: Flag-FTO, full length, wild type (HEK293T) (mouse) (UniProt Q8BGW1); assay: co-IP; HEK293T transfected with Flag-Fto constructs for 48 h (with HA-K48 and Myc-Ogt WT or K908A in Figure 6I); IP with anti-Flag; immunoblot for OGT or TRIM21 for which the legend names no plasmid
[2] = biological target: fat mass and obesity-associated protein (FTO), endogenous in BMDMs (mouse (endogenous in BMDMs)) (UniProt Q8BGW1); assay: co-IP; endogenous proteins in BMDM lysates (RIPA buffer with PMSF); antibody (anti-FTO, or in reverse anti-OGT or anti-TRIM21) plus protein-A/G magnetic beads; immunoblot; cells unstimulated or treated with LPS
[3] = biological target: Flag-FTO, full length, wild type (RAW264.7) (mouse) (UniProt Q8BGW1); assay: co-IP; RAW264.7 transfected with Flag-Fto and HA-K48 for 48 h, then TMG or OSMI-1 for 24 h; Co-IP and immunoblot
[4] = biological target: Flag-FTO, full length, wild type (HEK293T) (mouse) (UniProt Q8BGW1); assay: co-IP; HEK293T co-transfected with Flag-Fto constructs and Myc-tagged partner (Myc-Ogt constructs or Myc-Trim21; HA-K48 in Figure 6J) for 48 h; RIPA lysate; IP with anti-Flag, immunoblot against Myc and Flag
[5] = biological target: Flag-FTO (S95A) (mouse) (UniProt Q8BGW1); assay: as above
[6] = biological target: Flag-FTO, full length, wild type (HEK293T) (mouse) (UniProt Q8BGW1); assay: co-IP; HEK293T transfected with Flag-Fto constructs for 48 h (with HA-K48 and Myc-Ogt WT or K908A in Figure 6I); IP with anti-Flag; immunoblot for OGT or TRIM21 for which the legend names no plasmid; remark: listed apart in the source
[7] = biological target: Flag-FTO (S95A) (mouse) (UniProt Q8BGW1); assay: as above
[8] = biological target: Flag-FTO (S226A) (mouse) (UniProt Q8BGW1); assay: as above
[9] = biological target: Flag-FTO (S237A) (mouse) (UniProt Q8BGW1); assay: as above
[10] = biological target: Flag-FTO (T92A) (mouse) (UniProt Q8BGW1); assay: as above

Protein sequences, listed by entry. Tags and fused reporters are not part of them. Lines headed by an entry give the natural chain unless they say otherwise; changes in a name come on top.
UniProt Q8BGW1: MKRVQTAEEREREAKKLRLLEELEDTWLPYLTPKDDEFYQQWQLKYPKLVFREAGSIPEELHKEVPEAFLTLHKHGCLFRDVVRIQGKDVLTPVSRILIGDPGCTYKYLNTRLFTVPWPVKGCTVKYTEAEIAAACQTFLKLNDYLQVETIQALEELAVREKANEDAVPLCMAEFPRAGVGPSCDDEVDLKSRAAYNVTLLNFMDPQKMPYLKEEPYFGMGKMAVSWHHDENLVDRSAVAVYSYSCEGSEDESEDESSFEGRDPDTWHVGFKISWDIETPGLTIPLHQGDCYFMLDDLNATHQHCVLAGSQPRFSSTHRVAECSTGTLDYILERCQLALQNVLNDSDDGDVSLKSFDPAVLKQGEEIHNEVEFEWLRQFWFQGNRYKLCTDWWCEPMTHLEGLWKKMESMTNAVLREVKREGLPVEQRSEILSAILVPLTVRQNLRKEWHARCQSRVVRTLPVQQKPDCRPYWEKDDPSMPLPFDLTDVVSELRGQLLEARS
UniProt P19474: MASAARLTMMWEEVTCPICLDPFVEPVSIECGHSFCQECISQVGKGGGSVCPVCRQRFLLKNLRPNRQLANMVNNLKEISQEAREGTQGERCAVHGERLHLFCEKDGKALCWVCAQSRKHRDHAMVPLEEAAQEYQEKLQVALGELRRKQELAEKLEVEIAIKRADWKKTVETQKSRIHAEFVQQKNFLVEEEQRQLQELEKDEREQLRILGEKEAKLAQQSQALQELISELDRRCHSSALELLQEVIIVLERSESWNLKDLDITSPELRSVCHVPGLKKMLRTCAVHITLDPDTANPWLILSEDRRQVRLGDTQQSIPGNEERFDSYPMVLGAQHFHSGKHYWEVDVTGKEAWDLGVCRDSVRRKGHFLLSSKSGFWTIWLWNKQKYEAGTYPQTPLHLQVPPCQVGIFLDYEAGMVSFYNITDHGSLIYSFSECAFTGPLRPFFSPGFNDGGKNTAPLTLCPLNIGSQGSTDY

TRIM21 in HEK293T cells transfected with Flag-Fto, HA-K48 and Myc-Ogt (from UniProt P19474 1-475) (enzyme)
binding [1]: binds

B1: O-GlcNAc transferase (OGT), endogenous in BMDMs (enzyme, UniProt Q8CGY8 1-1046)
chain: MASSVGNVADSTEPTKRMLSFQGLAELAHREYQAGDFEAAERHCMQLWRQEPDNTGVLLLLSSIHFQCRRLDRSAHFSTLAIKQNPLLAEAYSNLGNVYKERGQLQEAIEHYRHALRLKPDFIDGYINLAAALVAAGDMEGAVQAYVSALQYNPDLYCVRSDLGNLLKALGRLEEAKACYLKAIETQPNFAVAWSNLGCVFNAQGEIWLAIHHFEKAVTLDPNFLDAYINLGNVLKEARIFDRAVAAYLRALSLSPNHAVVHGNLACVYYEQGLIDLAIDTYRRAIELQPHFPDAYCNLANALKEKGSVAEAEDCYNTALRLCPTHADSLNNLANIKREQGNIEEAVRLYRKALEVFPEFAAAHSNLASVLQQQGKLQEALMHYKEAIRISPTFADAYSNMGNTLKEMQDVQGALQCYTRAIQINPAFADAHSNLASIHKDSGNIPEAIASYRTALKLKPDFPDAYCNLAHCLQIVCDWTDYDERMKKLVSIVAEQLEKNRLPSVHPHHSMLYPLSHGFRKAIAERHGNLCLDKINVLHKPPYEHPKDLKLSDGRLRVGYVSSDFGNHPTSHLMQSIPGMHNPDKFEVFCYALSPDDGTNFRVKVMAEANHFIDLSQIPCNGKAADRIHQDGIHILVNMNGYTKGARNELFALRPAPIQAMWLGYPGTSGALFMDYIITDQETSPAEVAEQYSEKLAYMPHTFFIGDHANMFPHLKKKAVIDFKSNGHIYDNRIVLNGIDLKAFLDSLPDVKIVKMKCPDGGDNPDSSNTALNMPVIPMNTIAEAVIEMINRGQIQITINGFSISNGLATTQINNKAATGEEVPRTIIVTTRSQYGLPEDAIVYCNFNQLYKIDPSTLQMWANILKRVPNSVLWLLRFPAVGEPNIQQYAQNMGLPQNRIIFSPVAPKEEHVRRGQLADVCLDTPLCNGHTTGMDVLWAGTPMVTMPGETLASRVAASQLTCLGCLELIAKSRQEYEDIAVKLGTDLEYLKKIRGKVWKQRISSPLFNTKQYTMELERLYLQMWEHYAAGNKPDHMIKPVEVTESA
binding [2]: binds weakly

B2: tripartite motif family member TRIM21, endogenous in mouse macrophages (enzyme, UniProt Q62191 1-470)
chain: MSPSTTSKMSLEKMWEEVTCSICLDPMVEPMSIECGHCFCKECIFEVGKNGGSSCPECRQQFLLRNLRPNRHIANMVENLKQIAQNTKKSTQETHCMKHGEKLHLFCEEDGQALCWVCAQSGKHRDHTRVPIEEAAKVYQEKIHVVLEKLRKGKELAEKMEMDLTMQRTDWKRNIDTQKSRIHAEFALQNSLLAQEEQRQLQRLEKDQREYLRLLGKKEAELAEKNQALQELISELERRIRGSELELLQEVRIILERSGSWNLDTLDIDAPDLTSTCPVPGRKKMLRTCWVHITLDRNTANSWLIISKDRRQVRMGDTHQNVSDNKERFSNYPMVLGAQRFSSGKMYWEVDVTQKEAWDLGVCRDSVQRKGQFSLSPENGFWTIWLWQDSYEAGTSPQTTLHIQVPPCQIGIFVDYEAGVVSFYNITDHGSLIYTFSECVFAGPLRPFFNVGFNYSGGNAAPLKLCPLKM
binding [3]: binds
binding [2]: binds

B3: Myc-TRIM21 (HEK293T) (enzyme, UniProt Q62191 1-470)
chain: MSPSTTSKMSLEKMWEEVTCSICLDPMVEPMSIECGHCFCKECIFEVGKNGGSSCPECRQQFLLRNLRPNRHIANMVENLKQIAQNTKKSTQETHCMKHGEKLHLFCEEDGQALCWVCAQSGKHRDHTRVPIEEAAKVYQEKIHVVLEKLRKGKELAEKMEMDLTMQRTDWKRNIDTQKSRIHAEFALQNSLLAQEEQRQLQRLEKDQREYLRLLGKKEAELAEKNQALQELISELERRIRGSELELLQEVRIILERSGSWNLDTLDIDAPDLTSTCPVPGRKKMLRTCWVHITLDRNTANSWLIISKDRRQVRMGDTHQNVSDNKERFSNYPMVLGAQRFSSGKMYWEVDVTQKEAWDLGVCRDSVQRKGQFSLSPENGFWTIWLWQDSYEAGTSPQTTLHIQVPPCQIGIFVDYEAGVVSFYNITDHGSLIYTFSECVFAGPLRPFFNVGFNYSGGNAAPLKLCPLKM
binding [4]: binds
binding [5]: no binding

B4: Myc-OGT, full length, wild type (HEK293T) (enzyme, UniProt Q8CGY8 1-1046)
chain: MASSVGNVADSTEPTKRMLSFQGLAELAHREYQAGDFEAAERHCMQLWRQEPDNTGVLLLLSSIHFQCRRLDRSAHFSTLAIKQNPLLAEAYSNLGNVYKERGQLQEAIEHYRHALRLKPDFIDGYINLAAALVAAGDMEGAVQAYVSALQYNPDLYCVRSDLGNLLKALGRLEEAKACYLKAIETQPNFAVAWSNLGCVFNAQGEIWLAIHHFEKAVTLDPNFLDAYINLGNVLKEARIFDRAVAAYLRALSLSPNHAVVHGNLACVYYEQGLIDLAIDTYRRAIELQPHFPDAYCNLANALKEKGSVAEAEDCYNTALRLCPTHADSLNNLANIKREQGNIEEAVRLYRKALEVFPEFAAAHSNLASVLQQQGKLQEALMHYKEAIRISPTFADAYSNMGNTLKEMQDVQGALQCYTRAIQINPAFADAHSNLASIHKDSGNIPEAIASYRTALKLKPDFPDAYCNLAHCLQIVCDWTDYDERMKKLVSIVAEQLEKNRLPSVHPHHSMLYPLSHGFRKAIAERHGNLCLDKINVLHKPPYEHPKDLKLSDGRLRVGYVSSDFGNHPTSHLMQSIPGMHNPDKFEVFCYALSPDDGTNFRVKVMAEANHFIDLSQIPCNGKAADRIHQDGIHILVNMNGYTKGARNELFALRPAPIQAMWLGYPGTSGALFMDYIITDQETSPAEVAEQYSEKLAYMPHTFFIGDHANMFPHLKKKAVIDFKSNGHIYDNRIVLNGIDLKAFLDSLPDVKIVKMKCPDGGDNPDSSNTALNMPVIPMNTIAEAVIEMINRGQIQITINGFSISNGLATTQINNKAATGEEVPRTIIVTTRSQYGLPEDAIVYCNFNQLYKIDPSTLQMWANILKRVPNSVLWLLRFPAVGEPNIQQYAQNMGLPQNRIIFSPVAPKEEHVRRGQLADVCLDTPLCNGHTTGMDVLWAGTPMVTMPGETLASRVAASQLTCLGCLELIAKSRQEYEDIAVKLGTDLEYLKKIRGKVWKQRISSPLFNTKQYTMELERLYLQMWEHYAAGNKPDHMIKPVEVTESA
binding [4]: binds

B5: OGT detected with anti-OGT in HEK293T cells transfected with Flag-Fto constructs only (enzyme, UniProt O15294 1-1046)
chain: MASSVGNVADSTEPTKRMLSFQGLAELAHREYQAGDFEAAERHCMQLWRQEPDNTGVLLLLSSIHFQCRRLDRSAHFSTLAIKQNPLLAEAYSNLGNVYKERGQLQEAIEHYRHALRLKPDFIDGYINLAAALVAAGDMEGAVQAYVSALQYNPDLYCVRSDLGNLLKALGRLEEAKACYLKAIETQPNFAVAWSNLGCVFNAQGEIWLAIHHFEKAVTLDPNFLDAYINLGNVLKEARIFDRAVAAYLRALSLSPNHAVVHGNLACVYYEQGLIDLAIDTYRRAIELQPHFPDAYCNLANALKEKGSVAEAEDCYNTALRLCPTHADSLNNLANIKREQGNIEEAVRLYRKALEVFPEFAAAHSNLASVLQQQGKLQEALMHYKEAIRISPTFADAYSNMGNTLKEMQDVQGALQCYTRAIQINPAFADAHSNLASIHKDSGNIPEAIASYRTALKLKPDFPDAYCNLAHCLQIVCDWTDYDERMKKLVSIVADQLEKNRLPSVHPHHSMLYPLSHGFRKAIAERHGNLCLDKINVLHKPPYEHPKDLKLSDGRLRVGYVSSDFGNHPTSHLMQSIPGMHNPDKFEVFCYALSPDDGTNFRVKVMAEANHFIDLSQIPCNGKAADRIHQDGIHILVNMNGYTKGARNELFALRPAPIQAMWLGYPGTSGALFMDYIITDQETSPAEVAEQYSEKLAYMPHTFFIGDHANMFPHLKKKAVIDFKSNGHIYDNRIVLNGIDLKAFLDSLPDVKIVKMKCPDGGDNADSSNTALNMPVIPMNTIAEAVIEMINRGQIQITINGFSISNGLATTQINNKAATGEEVPRTIIVTTRSQYGLPEDAIVYCNFNQLYKIDPSTLQMWANILKRVPNSVLWLLRFPAVGEPNIQQYAQNMGLPQNRIIFSPVAPKEEHVRRGQLADVCLDTPLCNGHTTGMDVLWAGTPMVTMPGETLASRVAASQLTCLGCLELIAKNRQEYEDIAVKLGTDLEYLKKVRGKVWKQRISSPLFNTKQYTMELERLYLQMWEHYAAGNKPDHMIKPVEVTESA
binding [6]: binds
binding [7]: binds
binding [8]: binds
binding [9]: binds
binding [10]: binds
